Experimental findings from PubChem BioAssay (NCATS) are described below.

The other results are listed elsewhere or left out. Further columns of the screen follow, without active or inactive calls. Compounds called inactive in the main read-out are mostly missing here.

This test can be described thus: qHTS Assay for Lipid Storage Modulators (AID 1519). The note with it: Drosophila S3 cells, BODIPY lipid droplet/cell ratio, laser cytometry; measured here: lipid channel max response; cells loaded with oleic acid. A digest of the protocol:
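Cells seeded at 5,000 per well were treated with compounds over a concentration series and loaded with oleic acid (400 uM, as added). Lipid droplet fluorescence (488 nm excitation, 500-530 nm channel) was read by laser-scanning cytometry and normalized to 20 uM Triacsin C.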
On the technique in general: Quantitative high-throughput screening tests each substance at several concentrations.
Consider `CS(=O)(=O)N1CCC2(CCN(Cc3nccs3)CC2)CC1`, for which the max response is 31%.
Consider `COc1ccc(Oc2ncc3ncc(=O)n(Cc4cccc(OC)c4)c3n2)cc1`, for which the max response is 27.3%.
Consider `COc1ccc(C(=O)N2CCC3(CCN(Cc4ccncc4)CC3)CC2)cc1`, for which the max response is 31.3%.
As to `CCNc1ncc2nc(C)c(=O)n(CCc3ccccc3)c2n1`, the max response turned out to be 24.6%.
As for `O=C(OCCOCCO)c1ccccc1Nc1cccc(C(F)(F)F)c1`, the max response was -52.4%.
On to `COc1cccc(Nc2ncc3nc(-c4ccc(Cl)cc4)c(=O)n(CCC#N)c3n2)c1`, for which the max response was -6.51%.
Regarding `COc1ccc(C(=O)N2CCC3(CC2)CCN(c2ccccn2)CC3)cc1`, the max response turned out to be 32.7%.
For `N#Cc1ccc(CN2CCCC3(CCN(S(=O)(=O)c4ccccc4)CC3)C2)cc1` the value was -17.9%.
In the case of `COc1ccc(Oc2ncc3nc(C)c(=O)n(CCC#N)c3n2)cc1`, the max response is 36.4%.
Turning to `COc1ncc2ncc(=O)n(CCC#N)c2n1`, the max response came out at 24.1%.
For `CN(C)C(=O)c1ccc(-c2nc(Nc3ccc(F)cc3)c3ccccc3n2)cc1`, the max response was -0.181%.
With `COc1ccccc1-c1nc(NCc2cccnc2)c2ccccc2n1`, the max response came to 13.9%.
Next, `Cc1cccc(CNc2nc(-c3ccc(C(=O)N(C)C)cc3)nc3ccccc23)c1`: 10.6%; `COCCn1c(=O)c(-c2cccs2)nc2cnc(Oc3ccc(OC)cc3)nc21`: -9.64%; `Cc1nc2cnc(Oc3ccccc3)nc2n(C2CC2)c1=O`: 21.3%.
For `COc1ccc(-c2coc3c(OC)c(OC)cc(O)c3c2=O)cc1` the value was 24.4%; for `CN(C)c1ncc2nc(-c3cc(F)cc(F)c3)c(=O)n(C)c2n1`, 34%; for `CS(=O)(=O)N1CCC2(CCCN(c3ncccn3)C2)CC1`, 25.8%.
In the case of `CC(C)NC[C@@H](O)COc1ccccc1-n1cccc1`, the max response was 30.9%.
As to `c1cncc(-c2ccc3ncnc(NC4CCNCC4)c3c2)c1`, the max response stood at 30.2%.
`CCC(=O)OCC(=O)C1(OC(=O)CC)C(C)CC2C3CCC4=CC(=O)C=CC4(C)C3(Cl)C(O)CC21C` (stereo not given): the max response worked out at 36.8%.
For the compound `Cc1ccccc1-c1ccc2ncnc(NCCN3CCOCC3)c2c1`, the max response is -0.573%.
As for `COc1ccc(-c2nc3cnc(Nc4cccc(OC)c4)nc3n(Cc3cccs3)c2=O)cc1`, the max response was -11%.
Turning to `Cc1ccccc1OCC(O)CO` (stereo not given), the max response is 31.6%.
Consider `CN(C)C(=O)c1ccc(-c2cc(NCc3ccccc3)ncn2)cc1`, for which the max response worked out at 33.7%.
For `N#CCCn1c(=O)c(-c2ccc(F)cc2)nc2cnc(Oc3ccccc3)nc21`, the max response stood at 26.9%.
For `O=C(c1ccco1)N1CCC2(CC1)CCN(c1ccc(-c3ccccc3)cc1)CC2` the value was 39.8%; for `CCNc1ncc2nc(C)c(=O)n(C[C@H]3CCCO3)c2n1`, 34.9%; for `FC(F)(F)c1ccccc1-c1nccc(NCCN2CCOCC2)n1`, 38.1%.
In the case of `CN1CCN(CCC=C2c3ccccc3Sc3ccc(S(=O)(=O)N(C)C)cc32)CC1`, the max response came to 32.3%.
Turning to `CCN(CC)CCOC(=O)c1ccc(N)cc1`, the max response came to 37.8%.
Regarding `C[C@H]1[C@H]2CC[C@H]3C4CC=C5C[C@@H](N(C)C)CC[C@]5(C)C4CC[C@]23CN1C` (stereo not given in full), the max response is 34.8%.
In the case of `CNC(=O)[C@H]1O[C@H](n2cnc3c(NCc4cccc(I)c4)nc(Cl)nc32)[C@@H](O)[C@@H]1O`, the max response amounted to 75.4%.
In the case of `COc1ccc(NC(=O)N2CC[C@@]3(CCCN(C(=O)c4c(C)noc4C)C3)C2)cc1`, the max response is 41.7%.
Regarding `Cn1cccc1C(=O)N1CCC[C@@]2(CCN(Cc3nccs3)C2)C1`, the max response is 39.1%.
Next, `O=C1OCCN1/N=C/c1ccc([N+](=O)[O-])o1`: -54.6%.
For `COc1ccc(C(=O)N2CCC[C@@]3(CCN(Cc4ccccc4)C3)C2)cc1`, the max response is 7.1%.
For `COCCn1c(=O)c(-c2ccc(OC)cc2)nc2cnc(Oc3cccc(Cl)c3)nc21` the value was 25.4%; for `c1ccc2c(c1)CN1CCCC1=N2`, 31.9%; for `O=C(c1ccncc1)N1CCC2(CCN(Cc3cc(C(F)(F)F)cc(C(F)(F)F)c3)CC2)CC1`, 32.1%.
